Measured values from PMC4336329 (PLoS ONE, 2015).
Hit rate of the full screen: of about 310,000 compounds, about 2,200 (0.71%) showed an effect of 50% or more. The effect is printed as a negative number. The list shows a part of the results.

Target: human ether-à-go-go-related gene (hERG) potassium channel (human, UniProt Q12809)
Test: primary screen, population patch clamp on CHO cells stably expressing hERG

Sequence of human ether-à-go-go-related gene (hERG) potassium channel (Q12809 whole entry, looked up): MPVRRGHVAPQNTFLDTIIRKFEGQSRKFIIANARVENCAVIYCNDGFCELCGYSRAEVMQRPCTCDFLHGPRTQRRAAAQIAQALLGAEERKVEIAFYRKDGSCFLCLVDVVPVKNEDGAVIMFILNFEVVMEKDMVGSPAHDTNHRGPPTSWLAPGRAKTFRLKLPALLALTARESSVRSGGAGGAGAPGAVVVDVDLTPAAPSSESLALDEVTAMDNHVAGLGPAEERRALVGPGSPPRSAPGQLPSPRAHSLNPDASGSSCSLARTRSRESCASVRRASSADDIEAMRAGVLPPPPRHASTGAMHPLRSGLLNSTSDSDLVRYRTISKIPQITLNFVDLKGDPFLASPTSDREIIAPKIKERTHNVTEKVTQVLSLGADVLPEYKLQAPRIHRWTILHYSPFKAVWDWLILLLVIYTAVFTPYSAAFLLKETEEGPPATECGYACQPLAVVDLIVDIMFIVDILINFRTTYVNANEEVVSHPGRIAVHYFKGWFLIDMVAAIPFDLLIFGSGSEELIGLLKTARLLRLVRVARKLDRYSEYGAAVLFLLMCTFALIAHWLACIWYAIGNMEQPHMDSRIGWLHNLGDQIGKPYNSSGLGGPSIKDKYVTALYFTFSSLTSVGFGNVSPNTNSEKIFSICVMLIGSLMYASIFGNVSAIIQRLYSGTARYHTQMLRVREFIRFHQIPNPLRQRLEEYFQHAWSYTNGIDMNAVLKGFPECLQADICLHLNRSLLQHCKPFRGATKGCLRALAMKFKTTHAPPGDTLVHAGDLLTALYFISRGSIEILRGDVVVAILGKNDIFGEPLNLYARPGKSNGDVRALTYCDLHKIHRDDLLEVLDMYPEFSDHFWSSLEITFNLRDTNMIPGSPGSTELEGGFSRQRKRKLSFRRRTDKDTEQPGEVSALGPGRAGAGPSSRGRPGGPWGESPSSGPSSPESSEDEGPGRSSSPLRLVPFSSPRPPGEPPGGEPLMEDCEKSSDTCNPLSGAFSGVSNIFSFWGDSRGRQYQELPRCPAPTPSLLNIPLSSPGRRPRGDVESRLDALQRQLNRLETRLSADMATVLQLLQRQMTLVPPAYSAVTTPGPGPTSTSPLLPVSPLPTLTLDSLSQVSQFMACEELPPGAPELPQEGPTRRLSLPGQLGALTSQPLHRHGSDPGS

| SMILES | hERG current change (%, negative = inhibition) at 1uM [%] |
| --- | --- |
| Cc1ccccc1CC(=O)Nc1cc(C(C)(C)C)on1 | 4.84 |
| CC1CCN(C(=O)CSc2nc3c(c(=O)n(C)c(=O)n3C)n2C)CC1 | 15.6 |
| C#CCSc1cc(C(F)(F)F)nc(-c2ccccn2)n1 | 6.6 |
| O=C(O)c1ncn(Cc2ccc(Br)cc2)c1C(=O)O | 12.3 |
| Nc1ccc(O)cc1C(=O)OCC(=O)c1ccc(C2CCCCC2)cc1 | 9.26 |
| COc1ccc(S(=O)(=O)NCCCn2ccnc2)cc1C(C)(C)C | -17.4 |
| Cc1c(C(=O)N2CCCCC2)nnn1-c1nonc1N | 5.84 |
| CCN(CC)CCNc1nc(-c2ccccc2)nnc1C(F)(F)F | -6.37 |
| COc1ccc(CC2C(=O)N(c3ccccc3)C(=O)N(c3ccccc3)C2=O)c(OC)c1 | 9.85 |
| Cc1onc(-c2c(F)cccc2Cl)c1C(=O)NCCN1CCNC1=O | 12.1 |
| CNC(=O)C1C2C=CC3(O2)C1C(=O)N(C1CC1)C3C(=O)NCc1ccc(OC)cc1 (centres unmarked) | 10.4 |
| Cc1ccc(CSCC(=O)N/N=C/c2ccc(OCC(=O)Nc3ccc(C)cc3)cc2)cc1 | 10.8 |
| Cc1cccc(Oc2c([N+](=O)[O-])c(=O)n(C)c3ccccc23)c1 | 7.25 |
| O=C(Nc1c(F)cc(F)cc1Br)c1ccco1 | 5.74 |
| COc1cc2c(cc1OC)/C(=C/C(=O)c1ccccc1F)NCC2 | 5.54 |
| O=C(N[C@@H](Cc1ccccc1)C(=O)NC1CC1)c1ccc(Cl)cc1 | 6.16 |
| CCOc1ccc(CCNC(=O)COn2nnc3ccc(S(=O)(=O)N4CCOCC4)cc32)cc1OCC | 4.85 |
| COc1ccc(NC(=O)C(=O)NCC(=O)Nc2cc(OC)ccc2OC)cc1 | 5.79 |
| Cc1cccc(-n2c(O)c(C=NCc3ccccn3)c3ccccc3c2=O)c1 | 9.42 |
| CCOC(=O)c1sc(N(Cc2ccccc2)C(=O)CN2C(=O)CN(C)C2=O)nc1C | -0.796 |
| COc1ccc(C(=O)N[C@H]2CCCCNC2=O)cc1OC1CCN(C(C)C)CC1 | 9.99 |
| C=CCS/C(N)=N\N=C\c1c(O)ccc2ccccc12 | 13.3 |
| Cn1c(CO)cnc1SCC(=O)c1ccc(F)cc1 | 11.2 |

| SMILES | hERG current change (%, negative = inhibition) at 1uM [%] |
| --- | --- |
| O=C(Cc1ccccc1)Nc1ccc(N2CCCC2)cc1 | -0.653 |
| COc1cccc(-c2csc(N3CCN(C(=S)Nc4ccccc4)CC3)n2)c1 | 6.08 |
| COc1cc(C2N(c3ccc(Cl)c(Cl)c3)C(=O)C3CCCN32)cc(OC)c1OC (centres unmarked) | 4.04 |
| CCCOc1ccc(C2/C(=C(/O)c3ccc(F)cc3)C(=O)C(=O)N2CCCN(C)C)cc1 (centres unmarked) | 12.6 |
| Cn1cccc1/C=C1\SC(=S)N(NC(=O)c2ccccc2O)C1=O | 9.79 |
| Cc1ccc(S(=O)(=O)N2CCCCC2)cc1C(=O)NCc1ccccn1 | 13.8 |
| Cc1ccccc1OC(C)C(=O)Nc1ccc(S(=O)(=O)Nc2nccs2)cc1 (centres unmarked) | 8.07 |
| O=C1COc2ccc(C(=O)COc3ccc(Cl)cc3Br)cc2N1 | 2.1 |
| Cc1cc(NC(=O)CCC(=O)N(c2ccccc2F)C(C(=O)NC2CCCC2)c2ccccc2)no1 (centres unmarked) | 18.4 |
| O=C(Cc1cscn1)c1ccc(O)cc1O | -2.76 |
| CC1(C)CC(=O)C(C(=O)C2CCN(S(=O)(=O)c3ccccc3)CC2)C(=O)C1 | 8.19 |
| Cc1c(=O)n(OCc2cccc(F)c2)c2ccccc2[n+]1[O-] | -0.81 |
| N#Cc1nc(-c2ccc(Cl)cc2)oc1N1CCCCC1 | 15.6 |
| COc1ccc2c(c1)c1ncn(CCc3ccccc3)c(=O)c1n2C | -0.629 |
| NC(=O)CC[C@@H]1NC(=O)[C@@H]2CCCN2C(=O)c2cc([N+](=O)[O-])cc(F)c2NCCC[C@@H](C(N)=O)NC1=O | -15.8 |
| CCNC(=O)c1ccc2c(c1)S(=O)(=O)c1ccccc1C2=O | -25.4 |
| O=C(OCC(=O)N1CCCCC1)c1cccc(NS(=O)(=O)c2ccccc2)c1 | 12.4 |
| O=c1oc2ccccc2cc1-c1nc2ccccc2o1 | 7.04 |
| Cc1ccc(NC(=O)c2cccc(N3C(=O)C4C5CCC(C5)C4C3=O)c2)c(C)c1 (centres unmarked) | 12.4 |
| Oc1ccccc1C(=S)N1CCCCCC1 | 6.21 |
| COc1ccccc1OCc1cc(C(=O)NCCN2CCCC(O)C2)no1 (centres unmarked) | 6.34 |
| CCCCn1c(O)c(/C=N/NC(=O)c2ccncc2)c(=O)[nH]c1=S | 14.6 |
| COc1ccc(C2(C(=O)Nc3ccc(OC)cc3OC)CCCC2)cc1 | 14.6 |

| SMILES | hERG current change (%, negative = inhibition) at 1uM [%] |
| --- | --- |
| CCCCC1(C)Cc2ccccc2C(=S)N1 (centres unmarked) | 13.9 |
| COc1cccc(NC(=S)N(CCc2c(C)[nH]c3ccc(C)cc23)Cc2cccs2)c1 | 2.53 |
| CCC(CO)(C(=O)OC1C[N+]2(C)CCC1CC2)c1ccccc1.[I-] (centres unmarked) | 13.9 |
| NS(=O)(=O)c1cccnc1Nc1ccc(Cl)c(Cl)c1 | -2.58 |
| O=C(c1cnsn1)N1CCCC(Nc2ccc(F)c(F)c2)C1 (centres unmarked) | 8.17 |
| CC1CCN(C(=O)COc2ccccc2F)CC1 | 15.8 |
| COc1ccc(-c2nn(C)c(=O)[nH]2)cc1 | 17.1 |
| Cc1cc(C(=O)COC(=O)c2ccc(O)cc2)c(C)n1CC(F)(F)F | 7.78 |
| O=C(CSCc1ccc(Br)cc1)N1CCOCC1 | 5.03 |
| Cc1c(C(=O)C(=O)N2CCN(C)CC2)c2ccccc2n1C | 10.9 |
| O=C(NCc1nnc(SCC(=O)N2CCOCC2)o1)c1c(F)cccc1F | 6.78 |
| CCn1c(SCc2ccc([N+](=O)[O-])cc2)nnc1C(C)NC(=O)c1ccccc1Br (centres unmarked) | 3.3 |
| COc1ccccc1C1C=C(c2ccc(Cl)cc2)Nc2nc(N3C(=O)CCC3=O)nn21 (centres unmarked) | -1.99 |
| CCOc1ccc(N(CC(=O)NC(C)(C)C)C(=O)c2ccco2)cc1 | 0.399 |
| CS(=O)(=O)N(CC(=O)Nc1ccccc1C(=O)N1CCOCC1)c1ccccc1 | 19 |
| c1ccc(C2CN3CCC2CC3)cc1 (centres unmarked) | 7.2 |
| CCN(CC)S(=O)(=O)c1ccc(N2CCN(S(=O)(=O)c3ccc4c(c3)OCCO4)CC2)nc1 | 7.28 |
| COc1ccc(C(=O)NC(=S)N2CCOCC2)cc1Br | -2.56 |
| O=C(c1ccc(-n2nc(C(F)(F)F)c3c2CCCC3)cc1)N1CCOCC1 | 6.51 |
| Cc1ccc(N(C(=O)c2csnn2)C(C(=O)NC2CCCCC2)c2ccncc2)cc1 (centres unmarked) | 8.32 |
| CCc1ccccc1NC(=O)c1cccc(NC(=O)/C=C/c2ccco2)c1 | 3.1 |
| COc1ccc(OCCSc2ccc(S(=O)(=O)N3CCCC3)cn2)cc1 | 16.6 |
| COc1ccc(-n2nc3cc(C)c(NC(C)=O)cc3n2)cc1 | 9.55 |

| SMILES | hERG current change (%, negative = inhibition) at 1uM [%] |
| --- | --- |
| N#Cc1c(-c2ccco2)c2c([nH]c1=S)CCCC2 | 12.8 |
| Cc1ccc(-c2cc(C(F)F)n3ncc(C(=O)N4CCN5CCCC5C4)c3n2)cc1 (centres unmarked) | -21.6 |
| O=C(C(NS(=O)(=O)c1cccc2nsnc12)c1ccccc1)N1CCN(c2ccccn2)CC1 (centres unmarked) | -15 |
| CCOC(=O)N1CCN(Cc2cc(=O)oc3ccc(Cl)cc23)CC1 | 1.74 |
| Cc1nn(-c2cc(C(F)(F)F)ccn2)c(=O)o1 | 15 |
| O=C1S/C(=C\c2ccc(Cl)cc2)C(=O)N1CCn1cnnn1 | -4.31 |
| COc1ccc(Nc2cc(=O)n(-c3ccccc3)c3c2c(=O)n(C)c(=O)n3C)cc1 | 15.9 |
| Cc1ccc(-n2nnnc2SCc2ccccn2)cc1C | 12.6 |
| CCCNC(=O)N1[C@H]2CC[C@@H]1C(C(=O)OC)=C(c1ccc3ccccc3c1)C2 | 4.04 |
| Cc1cc2c(cc1C)CSC(c1ccccc1OC(=O)C(C)C)SC2 | 11.5 |
| CCO[C@H]1OC(C(=O)N2CCOCC2)=C[C@@H](c2cn(C(C)=O)c3ccccc23)[C@@H]1CCCO | 4.63 |
| O=C(C1CCN(S(=O)(=O)c2cccc3nsnc23)CC1)N1CCN(c2ccccc2F)CC1 | 8.77 |
| CCN1C(=O)N[C@@H](c2cccc(F)c2)C(C(C)=O)=C1C | 21.4 |
| CC1CN(S(=O)(=O)c2cccc(C(=O)Nc3cc(Cl)ccc3N3CCOCC3)c2)CC(C)O1 (centres unmarked) | -6.88 |
| O=C(COC(=O)CC1CC2CCC1C2)NC(=O)NCc1ccco1 (centres unmarked) | 10.5 |
| CCN(CC)c1nc(Oc2ccc(C(=O)OC)cc2)nc(N2CCOCC2)n1 | -4.31 |
| COc1cccc(OC)c1C(=O)Nc1ccc(N2CCN(C(=O)c3cccs3)CC2)cc1 | 10.7 |
| O=C(O)COc1ccc(NC(=O)c2cccs2)cc1 | 21.7 |
| Cc1cc(N2CCOCC2)nc(N)n1 | 16.1 |
| COc1ccc(Cl)cc1NC(=O)C(=O)N/N=C/c1cc(C)n(-c2ccc(C)cc2)c1C | 3.26 |
